Measurements as given in PubChem BioAssay AID1461 (National Center for Advancing Translational Sciences (NCATS), 2008).
Values joined by “and” are separate entries in the source; they are usually repeats but may differ in a detail not shown here. Equal entries are not always repeated. Screen size: about 220,000 compounds; about 2,300 (1%) were called active. Inconclusive means that the source gave no clear call. Such entries were picked first, then a sample of the others. Calls follow the shape of the dose curve; as a rule, active = well fitted inhibition curve with a large enough effect; inconclusive = small, poorly fitted or top-dose-only effect, or effect the other way; inactive = no such curve, though single readings can be large or run the other way. Where the call is inconclusive, the potency comes from a doubtful curve fit.

biological target: Neuropeptide S receptor (Homo sapiens) (UniProt Q6W5P4); assay: qHTS Assay for Antagonists of the Neuropeptide S Receptor: cAMP Signal Transduction; settings: CHO-NPSR cells, cAMP TR-FRET, antagonist mode; activity change, negative = inhibition: at 38.3 µM (top of the series) unless noted; also: nearly all actives have a fitted effect of over 50% in size
Source text: NIH Chemical Genomics Center [NCGC] NIH Molecular Libraries Probe Production centers Network [MLPCN] MLPCN Grant: X01-DA026210-01 Assay Submitter (PI): Heilig, Markus Alexander NCGC Assay Overview: Neuropeptide S receptor (NPSR), previously known as GPR154, is a recently de-orphanized G protein coupled receptor. Its endogenous ligand is the 20 amino acids peptide Neuropeptide S (NPS). […] NPS and its receptor are found in various tissues. Specifically they are highly expressed in brain areas that have been implicated in modulation of arousal, stress and anxiety. Central administration of NPS in mice produces an unusual profile of activity by inducing wakefulness and arousal, while at the same time suppressing anxiety. Therefore, NPSR may represent a novel drug target for the treatment of sleep and anxiety disorders. To identify NPSR antagonists, we developed a cell-based cAMP assay. NPS can stimulate the production of cAMP in Chinese hamster ovary cells stably expressing NPS receptor. This change in intracellular cAMP level can be detected by a homogeneous LANCE cAMP assay based on the TR-FRET (time resolved fluorescence resonance energy transfer) between a europium-labeled cAMP tracer complex and a cAMP-specific antibody labeled with Alexa Fluor 647. The europium-labeled cAMP tracer complex is formed by the tight interaction between Biotin-cAMP (b-cAMP) and streptavidin labeled with Europium-W8044 chelate (Eu-SA). Light pulse at 320 nm excites the europium of the cAMP tracer and the energy emitted is transferred to the Alexa molecule bound to the cAMP antibody, generating a TR-FRET signal at 665 nm. Residual energy from the europium will produce a light at 620 nm. The native unlabeled cAMP from cell lysates competes with the europium-cAMP tracer for antibody binding and reversely reduces the emission signal of Alexa by interrupting FRET between the two labeled molecules. Both emission signals from the FRET donor (620 nm) and the acceptor (665 nm) can be detected by a plate reader in the TRF mode. Expression of result in fluorescence ratio (665 nm/620 nm) helps to normalize differences due to cell density and reagent dispensing. This assay was successfully optimized to a 1536-well plate format.
NCGC Assay Protocol Summary: A Chinese hamster ovary (CHO) cell line stably expressing the NPS receptor (CHO-NPSR) was obtained from Dr. Heilig lab at NIAAA and maintained in F-12 Kaighn's media (Invitrogen, Carlsbad, CA, 21127) supplemented with 10 % FBS, 100 units/ml penicillin, 100 ug/ml streptomycin and 250 ug/ml geneticin at 37C, 5% CO2 in a humidified atmosphere. Before the assay, aliquots of cells were frozen and stored at -135C. The assay was performed in 1536-well format. Data are reported for both the ratio of the two emission wavelengths, and also for the component 'donor' channel, Em2=620. Data were normalized to the controls for basal activity (DMSO only) and 100% inhibition (No NPS control). IC50 values were determined from concentration-response data modeled with the standard Hill equation. NPS 1536-well assay protocol: (1) Fresh or frozen CHO-NPSR cells were suspended in F-12 Kaighn's media supplemented with 10 % FBS, 100 units/ml penicillin and 100 ug/ml streptomycin. Cells were plated at 4 ul/well (1200 cells) to white, tissue culture treated 1536-well plates, and then cultured at 37C, 5 % CO2 for 16 to 30 hours. (2) Add 23 nl/well of compound in DMSO solution. The final titration for each compound was between 0.6 nM and 46 uM. (3) Add 1 ul of stimulation reagent (1X HBSS buffer, 5 mM HEPES, 0.1% BSA, 500 uM RO-201724 (Sigma-Aldrich, B8279), 1.5% Alexa 647-labeled anti-cAMP antibody (from Perkin Elmer), 100 nM NPS) (4) Incubation at 37C, 5 % CO2 for 60 min. (5) Add 1 ul/well detection reagent. Detection reagent was prepared by adding biotin labeled cAMP (4%), streptavidin labeled with Europium-W8044 chelate (1.33%) and TritonX-100 (1%) to detection buffer. […]
% is scaled to controls: 0 for no effect and ±100 for the full control effect; potency is read from the fitted curve at half-maximal effect; tags tell the direction and shape of the fitted curve.

Chain of UniProt Q6W5P4 (Q6W5P4 whole entry, looked up): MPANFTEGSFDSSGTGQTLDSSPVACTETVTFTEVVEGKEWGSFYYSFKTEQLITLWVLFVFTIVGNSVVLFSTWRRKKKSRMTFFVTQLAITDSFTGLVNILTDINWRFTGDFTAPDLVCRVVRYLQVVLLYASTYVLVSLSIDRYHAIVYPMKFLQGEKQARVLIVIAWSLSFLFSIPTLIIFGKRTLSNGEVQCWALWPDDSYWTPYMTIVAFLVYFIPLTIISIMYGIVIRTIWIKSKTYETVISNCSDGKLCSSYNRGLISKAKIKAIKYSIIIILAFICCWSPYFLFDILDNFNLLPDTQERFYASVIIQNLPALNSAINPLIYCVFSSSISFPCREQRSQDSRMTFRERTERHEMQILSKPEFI

| Structure (SMILES) | Potency | activity change, negative = inhibition |
| --- | --- | --- |
| Cc1c(C(=O)N2CCC3(CC2)OCCO3)sc2ncnc(N3CCN(c4ccccn4)CC3)c12 | inconclusive: 12.6 µM [inhibitor, partial curve] | – |
| CN(C)c1ccc(/C=C/C=C2/C(=O)NC(=O)N(c3ccccc3)C2=O)cc1 | inconclusive: 12.6 µM [activator, single point] | – |
| CCCCn1c(O)c(C(=O)/C=C/c2ccc3c(c2)OCO3)c(=O)[nH]c1=O | inconclusive: 12.6 µM [inhibitor, single point] | – |
| Cc1nn(-c2ccccc2)c(Cl)c1C1C(C#N)=C(N)Oc2c1c(=O)oc1ccccc21 (centres undefined) | inconclusive: 7.94 µM [inhibitor, partial curve] | – |
| CC(C)CCn1c(N)c(C(=O)OCC2CCCO2)c2nc3ccccc3nc21 (centres undefined) | inconclusive: 10 µM [inhibitor, partial curve] | – |
| O=C(NCCN1CCOCC1)c1ccc(Cl)nc1 | – | inactive: 10.1% |
| CCC(=NCc1ccco1)c1c(O)n(C)c(=O)n(C)c1=O | – | inactive: 8.27% |
| O=C(c1c[nH]cc1-c1ccccc1)c1cccc2ccccc12 | inconclusive: 25.1 µM [inhibitor, single point] | – |
| COc1ccc(OP(=O)(Nc2ccccc2)Nc2ccccc2)cc1 | – | inconclusive: -32.6% [inhibitor] [at 46.1 µM] |
| O=c1[nH]c(O)c(/C=C2/C=CC(c3cc(Cl)ccc3Cl)=N2)c(=O)[nH]1 | inconclusive: 25.1 µM [inhibitor, single point] | – |
| Cc1ccccc1N1C(=O)NC(=O)/C(=C\c2cc(Br)c(N3CCOCC3)o2)C1=O | active: 12.6 µM | – |
| O=C(Nc1ccccc1F)Oc1cccc(OC(=O)Nc2ccccc2F)c1 | inconclusive: 5.01 µM [activator, single point] | – |
| CC(=O)c1c(O)c(C)c(O)c(Cc2c(O)c3c(c(C(=O)/C=C/c4ccccc4)c2O)OC(C)(C)C=C3)c1O | inconclusive: 1 µM [inhibitor, full curve] | – |
| CCc1ccc(N2C(=O)NC(=O)/C(=C/c3cccn3CCOc3ccc(C(C)CC)cc3)C2=O)cc1 (centres undefined) | inconclusive: 10 µM [inhibitor, single point] | – |
| O=C(O)c1cc[c]([Hg][Cl])cc1 | – | inactive: -1.5% [at 46.1 µM] |
| CCN(CC)P(=O)(Nc1ccc([N+](=O)[O-])cc1)c1c(C)nn(CCC#N)c1NC(=O)c1ccc(Cl)cc1Cl (centres undefined) | inconclusive: 12.6 µM [inhibitor, single point] | – |
| CCOC(=O)C1(CCc2ccccc2)CCN(Cc2cccc3c2OCO3)CC1 | inconclusive: 7.94 µM [activator, partial curve] | – |

| Structure (SMILES) | Potency | activity change, negative = inhibition |
| --- | --- | --- |
| CC(C)(C)c1nc(N2CCN(C(=O)c3ccco3)CC2)c2nnn(Cc3ccccc3Cl)c2n1 | active: 10 µM | – |
| O=C(C1CC(c2ccc(F)cc2)=NO1)N1CCC2(CC1)OCCO2 (centres undefined) | – | inactive: 1.35% [at 46.1 µM] |
| O=C1NC(=S)N(c2ccccc2F)C(=O)/C1=C\c1cccs1 | inconclusive: 12.6 µM [inhibitor, single point] | – |
| COC(=O)C1CN(C#N)N(c2ccc(Cl)cc2)C12c1ccccc1-c1ccccc12 (centres undefined) | active: 7.94 µM | – |
| OCC[n+]1c2ccccc2nc2ccc(N3CCOCC3)cc21 | inconclusive: 2.51 µM [activator, full curve] | – |
| N#C/C(=C\c1ccc(O)c(O)c1)C(=O)NCCCNC(=O)/C(C#N)=C/c1ccc(O)c(O)c1 | inconclusive: 3.98 µM [inhibitor, full curve, poor fit] | – |
| CCCN1CCO[C@@H]2c3cc(O)ccc3OC[C@H]21 | inconclusive: 12.6 µM [inhibitor, single point] and inconclusive: 251 nM [inhibitor, full curve, poor fit] | – |
| Cc1ccc(CN(C)CCc2ccccn2)cc1 | inconclusive: 2.51 µM [inhibitor, partial curve, poor fit] | – |
| CCN(c1ccc(C(O)(C(=O)OC)C(F)(F)F)cc1)S(=O)(=O)c1ccc(C)cc1 (centres undefined) | inconclusive: 12.6 µM [inhibitor, single point] | – |
| O=C1/C(=C/c2cccnc2)SC(=NCc2ccccc2)N1Cc1ccccc1 | inconclusive: 10 µM [inhibitor, single point] | – |
| Clc1ccc(C(c2ccc(Cl)cc2)n2cc[n+](CC(OCc3ccc(Cl)cc3Cl)c3ccc(Cl)cc3Cl)c2)cc1 (centres undefined) | active: 12.6 µM | – |
| COC(=O)c1cc2c(cn1)[nH]c1ccccc12 | inconclusive: 31.6 µM [inhibitor, single point] | – |
| Cc1c(P(=S)(c2ccccc2)c2ccccc2)[n+]2ccccc2n1C | active: 1.26 µM | – |
| N#CSCC(=O)N1c2ccccc2CCc2ccccc21 | inconclusive: 12.6 µM [inhibitor, single point] | – |
| C[n+]1c(-c2ccccc2)cc(CCCCc2cc(-c3ccccc3)[n+](C)c(-c3ccccc3)c2)cc1-c1ccccc1 | inconclusive: 12.6 µM [inhibitor, single point] | – |
| Cc1ccc(-n2sc3ccccc3c2=O)cc1 | inconclusive: 12.6 µM [inhibitor, single point] | – |
| COC(=O)[C@@H]1[C@@H](C(=O)OC)C2(c3ccccc3-c3ccccc32)N(c2ccc(Cl)cc2)N1C#N | active: 6.31 µM | – |
